From paper PMC4336329 (PLoS ONE, 2015)
Screen size: about 310,000 compounds; about 2,200 (0.71%) showed an effect of 50% or more. Effects have a minus sign here. The list shows a part of the results.

target: human ether-à-go-go-related gene (hERG) potassium channel (human, UniProt Q12809); test: primary screen, population patch clamp on CHO cells stably expressing hERG
Sequence (Q12809 whole entry, looked up): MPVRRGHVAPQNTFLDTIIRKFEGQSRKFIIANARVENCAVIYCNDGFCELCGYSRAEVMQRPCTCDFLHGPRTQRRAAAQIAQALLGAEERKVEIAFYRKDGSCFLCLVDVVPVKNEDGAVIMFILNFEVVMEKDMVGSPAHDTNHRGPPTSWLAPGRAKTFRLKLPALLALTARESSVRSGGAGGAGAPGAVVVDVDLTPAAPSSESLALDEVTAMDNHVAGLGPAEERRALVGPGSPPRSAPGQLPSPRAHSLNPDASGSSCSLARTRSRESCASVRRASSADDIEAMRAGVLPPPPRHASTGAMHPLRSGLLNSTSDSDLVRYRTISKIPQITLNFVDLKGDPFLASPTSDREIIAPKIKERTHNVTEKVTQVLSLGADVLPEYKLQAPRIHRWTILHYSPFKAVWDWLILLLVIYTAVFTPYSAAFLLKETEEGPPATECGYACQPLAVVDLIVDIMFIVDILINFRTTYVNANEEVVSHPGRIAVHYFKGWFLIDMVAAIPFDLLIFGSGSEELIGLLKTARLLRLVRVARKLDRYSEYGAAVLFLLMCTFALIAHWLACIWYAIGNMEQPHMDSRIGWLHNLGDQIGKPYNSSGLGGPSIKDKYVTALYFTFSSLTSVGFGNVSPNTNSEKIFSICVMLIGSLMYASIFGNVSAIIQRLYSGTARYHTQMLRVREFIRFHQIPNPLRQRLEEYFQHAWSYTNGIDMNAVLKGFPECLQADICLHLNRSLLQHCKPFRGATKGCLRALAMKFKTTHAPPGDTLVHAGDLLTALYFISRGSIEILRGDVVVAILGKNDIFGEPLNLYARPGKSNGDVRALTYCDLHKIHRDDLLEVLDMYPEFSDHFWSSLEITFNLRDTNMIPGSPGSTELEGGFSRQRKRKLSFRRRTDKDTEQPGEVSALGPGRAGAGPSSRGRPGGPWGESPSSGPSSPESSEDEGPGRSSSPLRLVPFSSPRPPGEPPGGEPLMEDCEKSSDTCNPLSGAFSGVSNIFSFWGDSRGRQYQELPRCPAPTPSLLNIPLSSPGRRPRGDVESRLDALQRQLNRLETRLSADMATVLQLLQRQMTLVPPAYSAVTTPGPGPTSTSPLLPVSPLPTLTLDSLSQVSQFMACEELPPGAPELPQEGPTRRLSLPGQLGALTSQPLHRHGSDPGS

First: CC(C(=O)Nc1ccc(S(=O)(=O)N2CCCCC2)cc1)N1CCN(c2ccccn2)CC1 (stereo not shown)
Second: O=C(C1CCN(S(=O)(=O)c2cccc3cccnc23)CC1)N1CCCCC1
The “hERG current change (%, negative = inhibition) at 1uM” value of the first is lower: 2.84% for the first, 12.7% for the second.

Going from `Cc1cccc2c(N=Nc3ccccc3)c(O)[nH]c12` to `Cc1ccc(-n2c(COc3ccccc3)n[nH]c2=S)cc1`, the “hERG current change (%, negative = inhibition) at 1uM” value rises from 12.1% to 23.8%.

Compared with `COc1ccc(C(=O)COC(=O)c2cccnc2Cl)c(OC)c1`, `COc1ccc2nc(NC(=O)Nc3ccccc3OC)sc2c1` is lower in “hERG current change (%, negative = inhibition) at 1uM” value: 15.2% for the first, 11.4% for the second.

Going from `C/C(=N\Nc1ccc([N+](=O)[O-])cc1)c1ccc(-n2nncc2C)cc1` to `CN(C)c1ccc(NC(=O)c2cnsn2)cc1`, the “hERG current change (%, negative = inhibition) at 1uM” value rises from 4.2% to 20.3%.

First: O=S(=O)(N1CCCCC1)n1c(Cc2ccccc2)nc2ccccc21
Second: O=[P+](Cc1ccccc1)Cc1ccccc1
The “hERG current change (%, negative = inhibition) at 1uM” value of the first is lower: -9.68% for the first, 6.48% for the second.

First: C=CC1=C2C=C(C3CC3)N(CCCN(CC)CC)C=C2C(=O)C(C)(OC(=O)c2ccco2)C1=O (stereo not shown)
Second: O=C(CSc1nnc(-c2ccco2)n1Cc1ccccc1)NC(=O)NCc1ccco1
The “hERG current change (%, negative = inhibition) at 1uM” value of the first is higher: 8.74% for the first, -15.6% for the second.

Going from `CCn1cc(C(=O)OCC(=O)Nc2cc(S(=O)(=O)N(C)C)ccc2C)c(=O)c2ccc(C)nc21` to `CCCn1c(N)c(N(C)C)c(=O)n(CC(=O)Nc2ccc(OC(F)(F)F)cc2)c1=O`, the “hERG current change (%, negative = inhibition) at 1uM” value rises from 8.56% to 12.2%.

Compared with `CCOc1cc(/C=C2\N=C3CCCCCN3C2=O)ccc1O`, `CN=C1S/C(=C\c2ccc(N3CCOCC3)c(F)c2)C(=O)N1C` is higher in “hERG current change (%, negative = inhibition) at 1uM” value: 13.6% for the first, 14.3% for the second.

First: COC(=O)c1c(NC(=O)C2CC=CCC2C(=O)O)sc2c1CCCCC2 (stereo not shown)
Second: COc1ccc(S(=O)(=O)N2CCCCC2)cc1NC(=O)C1CSC2(C)CCC(=O)N12 (stereo not shown)
The “hERG current change (%, negative = inhibition) at 1uM” value of the first is lower: 2.52% for the first, 2.76% for the second.

Compared with `Cc1ccc(NC(=O)COC(=O)C2COc3ccccc3O2)cc1` (stereo not shown), `COC(=O)c1ccnc(SCC(=O)c2ccccc2)c1` is lower in “hERG current change (%, negative = inhibition) at 1uM” value: 11.8% for the first, 4.14% for the second.

Compared with `CC(C)NS(=O)(=O)c1ccc(OCC(=O)NCCC2=CCCCC2)cc1`, `CCOc1ccc(S(=O)(=O)Nc2cc(S(=O)(=O)N3CCOCC3)ccc2OC)cc1` is lower in “hERG current change (%, negative = inhibition) at 1uM” value: 3.85% for the first, -2.08% for the second.

Going from `CCc1c(C)nc(SCC(=O)N2CCN(c3ccccc3OC)CC2)[nH]c1=O` to `O=C(CCc1nc2ccccc2c(=O)[nH]1)N1CCN(S(=O)(=O)c2cccc([N+](=O)[O-])c2)CC1`, the “hERG current change (%, negative = inhibition) at 1uM” value rises from 9.15% to 10.7%.

Compared with `CCN(CC)C(=O)CSc1ncnc2sccc12`, `CCc1nnc(NC(=O)CCCSc2nc3ccccc3[nH]2)s1` is lower in “hERG current change (%, negative = inhibition) at 1uM” value: 10.8% for the first, 10.1% for the second.

Going from `O=C(O)CCC(=O)N1N=C(c2c(-c3ccccc3)c3cc(Cl)ccc3[nH]c2=O)CC1c1cccs1` (stereo not shown) to `CCN(Cc1ccccc1)C(c1cc2cc(C)ccc2[nH]c1=O)c1nnnn1CCOC` (stereo not shown), the “hERG current change (%, negative = inhibition) at 1uM” value falls from 9.95% to 9.45%.

First: O=C(CSc1nnc(COc2ccccc2)o1)N1CCOCC1
Second: COc1ccc(N2CCN(C(C)C(=O)N3CCc4ccccc43)CC2)cc1 (stereo not shown)
The “hERG current change (%, negative = inhibition) at 1uM” value of the first is lower: 1.82% for the first, 8.14% for the second.

First: COc1ccc(S(=O)(=O)Nc2ccccc2C(=O)N2CCCCC2)cc1C
Second: O=C(Nc1ccccn1)C1CCCN1S(=O)(=O)c1ccc(Cl)cc1 (stereo not shown)
The “hERG current change (%, negative = inhibition) at 1uM” value of the first is higher: 11.1% for the first, 7.12% for the second.

Going from `O=C(Oc1ccc(OC(=O)c2ccco2)c(S(=O)(=O)c2ccc(Br)cc2)c1)c1ccco1` to `O=C(NC(Nc1cc(C(F)(F)F)ccc1Cl)C(=O)c1ccccc1)c1ccccc1` (stereo not shown), the “hERG current change (%, negative = inhibition) at 1uM” value rises from 9.69% to 13.6%.

Going from `NC(=O)CNC(=O)C1CCCc2c1[nH]c1ccc(Cl)cc21` (stereo not shown) to `Cc1cccc(C)c1-n1c(C)nn(CC2CC2)c1=O`, the “hERG current change (%, negative = inhibition) at 1uM” value rises from 7.66% to 8.45%.

First: CCN(CC)c1ccc(CNC23CN4CN(CN(C4)C2)C3)cc1
Second: COc1cccc(OCC(O)CN2CCC(C)CC2)c1.Cl (stereo not shown)
The “hERG current change (%, negative = inhibition) at 1uM” value of the first is higher: 11.9% for the first, 3.42% for the second.

First: COC(=O)C1C(c2ccc(OC)cc2)Nc2nnc(C(F)(F)F)n2C1(C)O (stereo not shown)
Second: Cc1nnsc1-c1nnc(SCC(=O)c2ccc(C#N)cc2)n1C1CC1
The “hERG current change (%, negative = inhibition) at 1uM” value of the first is higher: 10% for the first, 6.93% for the second.

Going from `CC(=O)Nc1ccn(-c2ccccc2)n1` to `CN(C)C(CNC(=O)CCc1c[nH]c2ccccc12)c1ccccc1` (stereo not shown), the “hERG current change (%, negative = inhibition) at 1uM” value falls from 11% to 2.5%.

For `CCCCOc1ccccc1P(=O)(O)CP(=O)(c1ccccc1)c1ccccc1`, the “hERG current change (%, negative = inhibition) at 1uM” value was 11%.
